According to patent US20240076381A1 (BOARD OF TRUSTEES OF THE UNIVERSITY OF ILLINOIS, published 2024):

Target: T1, Human serum albumin (human, UniProt P02768)
T1 construct: mature; also called full-length albumin
Test: ELISA on coated FcRn-β2m fusion, pH 6; KD estimated by saturation binding fit; pH 6

B1: FcRn-µ2m fusion protein (human β2m fused by (Gly4Ser)3 to the extracellular domain of human FcRn, His-tagged) (receptor)
chain: not shown
notes: also called FcRn-µ2m complex
- Kd: 300 nM
